Source: patent US20140294837A1 (SAMSUNG ELECTRONICS, published 2014)

Target: c-Met on cells (MKN45, Caki-1, NCI-H441, HUVEC) (human, UniProt P08581)
Assay: cell-based or functional assay

Sequence of UniProt P08581 (P08581 25-1390): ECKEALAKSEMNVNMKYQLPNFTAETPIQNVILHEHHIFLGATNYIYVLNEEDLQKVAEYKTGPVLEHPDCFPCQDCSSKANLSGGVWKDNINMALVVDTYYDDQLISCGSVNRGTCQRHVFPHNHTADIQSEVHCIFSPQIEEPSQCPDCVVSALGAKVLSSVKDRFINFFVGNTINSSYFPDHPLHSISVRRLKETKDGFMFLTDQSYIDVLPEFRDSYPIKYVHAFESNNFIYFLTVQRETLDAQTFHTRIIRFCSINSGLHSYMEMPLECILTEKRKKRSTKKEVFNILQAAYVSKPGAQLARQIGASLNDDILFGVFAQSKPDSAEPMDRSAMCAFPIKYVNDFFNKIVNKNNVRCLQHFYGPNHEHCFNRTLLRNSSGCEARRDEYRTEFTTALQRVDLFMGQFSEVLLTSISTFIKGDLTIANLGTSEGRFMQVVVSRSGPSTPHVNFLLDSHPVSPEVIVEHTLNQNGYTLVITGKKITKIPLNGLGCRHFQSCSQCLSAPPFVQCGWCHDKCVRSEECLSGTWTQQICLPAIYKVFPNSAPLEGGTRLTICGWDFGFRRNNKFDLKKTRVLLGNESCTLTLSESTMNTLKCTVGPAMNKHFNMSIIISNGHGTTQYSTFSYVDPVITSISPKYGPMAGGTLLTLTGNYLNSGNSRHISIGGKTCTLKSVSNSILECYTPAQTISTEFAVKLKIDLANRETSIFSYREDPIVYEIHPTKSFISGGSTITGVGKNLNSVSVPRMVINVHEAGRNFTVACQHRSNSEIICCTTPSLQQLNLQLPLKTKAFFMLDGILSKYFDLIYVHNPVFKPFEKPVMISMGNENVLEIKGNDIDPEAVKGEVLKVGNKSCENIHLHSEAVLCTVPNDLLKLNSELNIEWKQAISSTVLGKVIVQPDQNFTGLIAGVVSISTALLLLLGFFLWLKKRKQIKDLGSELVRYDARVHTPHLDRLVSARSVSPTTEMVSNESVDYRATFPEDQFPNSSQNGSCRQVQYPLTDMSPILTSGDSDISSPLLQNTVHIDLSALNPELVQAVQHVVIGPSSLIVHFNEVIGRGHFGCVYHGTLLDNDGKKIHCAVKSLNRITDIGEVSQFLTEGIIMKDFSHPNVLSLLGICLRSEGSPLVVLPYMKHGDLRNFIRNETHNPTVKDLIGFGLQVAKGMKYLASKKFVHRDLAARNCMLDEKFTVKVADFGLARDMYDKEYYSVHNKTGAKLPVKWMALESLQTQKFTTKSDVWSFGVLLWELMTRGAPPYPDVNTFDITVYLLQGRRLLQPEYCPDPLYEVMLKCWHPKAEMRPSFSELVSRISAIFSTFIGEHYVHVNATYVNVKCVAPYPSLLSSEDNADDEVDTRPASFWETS

B1: Ab2-VIG2 (bispecific antibody)
heavy: QVQLVQSGAEVKKPGASVKVSCKASGYIFTAYTMHWVRQAPGQGLDWMGGIKPNNGLANYAQKFQGRVTMTVDKSISTAYMELSRLRSDDTAVYYCARSEITTEFDYWGQGTLVTVSSASTKGPSVFPLAPSSKSTSGGTAALGCLVKDYFPEPVTVSWNSGALTSGVHTFPAVLQSSGLYSLSSVVTVPSSSLGTQTYICNVNHKPSNTKVDKKVEPKSCDCH[human IgG1 Fc omitted here]GGGGSGGGGSSDTGRPFVEMYSEIPEIIHMTEGRELVIPCRVTSPNITVTLKKFPLDTLIPDGKRIIWDSRKGFIISNATYKEIGLLTCEATVNGHLYKTNYLTHRQTNTI
light: DIVLTQSPDSLAVSLGERATINCRSSESVDSYANSFMHWYQQKPGQPPKLLIYRASTRESGVPDRFSGSGSRTDFTLTISSLQAEDVAVYYCQQSKEDPLTFGGGTKVEIKRTVAAPSVFIFPPSDEQLKSGTASVVCLLNNFYPREAKVQWKVDNALQSGNSQESVTEQDSKDSTYSLSSTLTLSKADYEKHKVYACEVTHQGLSSPVTKSFNRGEC
In the case of B1, the “c-Met degradation ability (total c-Met ELISA, method of Example 2.2)” value is reported as 81.9%.
